Holding throughout (assay): growth of human tumour cells (NCI), 48 h
Assay [1] relates to HT29 colon.
The subject of assay [2] is SN12C renal.
Assay [3] deals with MDA-N.
In assay [4] the test system is COLO 205 colon.
The subject of assay [5] is NCI-H226 lung.
The test system of assay [6] is SK-MEL-28 melanoma.
The subject of assay [7] is TK-10 renal.
The subject of assay [8] is UACC-62 melanoma.

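1) Cells in 96-well plates. 2) Compound, 48 h, 5 concentrations. 3) Linear interpolation between surrounding doses. 4) Unreached endpoint = highest concentration. GI50 = concentration required for 50% inhibition of growth.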 Some entries of the source have several records that differ or are many. The other results are left out here. There may be further records. For part of these data: Values given together are repeats in other runs, samples, wells, individuals or studies. Brackets tell where a record comes from. The letters are not those of the source and start again with each entry.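 Definition used: TGI = concentration required for complete inhibition of growth.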 For part of these data: A record mostly stands for its own series of concentrations, not given here; some values may only mark the edge of a range.

Take `CC(=O)OC1CC2(O)C(CCC3(C)C(c4ccc(=O)oc4)CCC32O)C2(C)CCC(O)C=C12` (centres undefined): the TGI in assay [1] was 143 nM and 1.99 µM; in assay [2], 180 nM and 3.87 µM.
With `CC(=O)OCC1OC(n2c(-c3ccccc3)c(N=Nc3ccc(Cl)cc3)c(C)c(C#N)c2=S)C(OC(C)=O)C(OC(C)=O)C1OC(C)=O` (centres undefined), the GI50 in assay [3] is 9.45 µM [sample A, 1 test] and > 100 µM [sample B, 1 test].
In the case of `Cn1c(=O)c(F)c(Nc2ccc(I)cc2F)c2c(=O)n(C[C@@H](O)CO)cnc21`, the TGI in assay [4] is 13.7 µM [sample A, mean of 2 tests] and 107 nM [sample B, 1 test]; in assay [5], 45 µM [sample A, mean of 2 tests] and 2.64 µM [sample B, 1 test]; in assay [6], 14.3 µM [sample A, mean of 2 tests] and 26.5 nM [sample B, 1 test]; in assay [8], 854 nM [sample A, mean of 2 tests] and 23.4 nM [sample B, 1 test]. Also, the GI50 was 1.15 µM [sample A, mean of 2 tests] and 39.9 nM [sample B, 1 test] in assay [5]; 183 nM [sample A, mean of 2 tests] and 16.2 nM [sample B, mean of 2 tests] in assay [7].

These data come from PubChem BioAssay (NCI).
